This passage reports AUC and IC50 results from the supplement of paper PMC4967469.

IC50 is the fitted dose that halves viability relative to control wells, and lower means more sensitive; fits outside the tested doses are given as limits. AUC is the area under the same curve over the 256-fold range up to the top dose, as a fraction; values near 1 show little effect. An inferred top dose comes from the curve model; the source does not state it.

Compound in this assay: Cc1ccc(-c2c(C(=O)CF)n(CCCO)c3ncnc(N)c23)cc1 [FMK]
The experiment in a line: Viability of human cancer cell lines after 72 h of drug (GDSC screen). The settings on record: top dose inferred. As to the method:
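Human cancer cell lines in 384-well plates, medium with 10% serum, drug for 72 h over a 256-fold dose range (nine 2-fold or five 4-fold steps up to the top dose). Adherent lines were fixed and stained with the nucleic acid dye Syto60, suspension lines read with resazurin; signal relative to control wells, capped at 0 and 100%. One two-parameter sigmoid per drug and line, fitted in a mixed model over all curves with the slope shared within a line.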
For the cell line “NCI-H3122 (lung adenocarcinoma, adherent, top dose 20 µM)”, the AUC was 0.987 and the IC50 (in general, the midpoint of a concentration-inhibition curve) was greater than 20 µM.

In the case of “NCI-SNU-1 (stomach, suspension, top dose 20 µM)”, the AUC stood at 0.925 and the IC50 is greater than 20 µM.

In the case of “NCI-SNU-5 (stomach, suspension, top dose 20 µM)”, the AUC turned out to be 0.989 and the half-inhibitory concentration (IC50) was greater than 20 µM.

On to “NCI-SNU-16 (stomach, suspension, top dose 20 µM)”, for which the AUC came out at 0.991 and the IC50 was greater than 20 µM.

As for “NK-92MI (lymphoid neoplasm, suspension, top dose 20 µM)”, the AUC worked out at 0.986 and the IC50 is greater than 20 µM.

Take “NKM-1 (acute myeloid leukaemia, suspension, top dose 20 µM)”: the AUC was 0.976 and the IC50 is greater than 20 µM.

With “NMC-G1 (glioma, adherent, top dose 20 µM)”, the AUC is 0.945 and the IC50 is greater than 20 µM.

As to “NOMO-1 (acute myeloid leukaemia, suspension, top dose 20 µM)”, the AUC came to 0.905 and the IC50 is greater than 20 µM.

As for “NOS-1 (osteosarcoma, adherent, top dose 20 µM)”, the AUC turned out to be 0.919 and the IC50 was greater than 20 µM.

As to “NTERA-2 cl.D1 (testis, adherent, top dose 20 µM)”, the AUC amounted to 0.977 and the IC50 was greater than 20 µM.

With “NU-DUL-1 (B-cell lymphoma, suspension, top dose 20 µM)”, the AUC turned out to be 0.974 and the half-maximal inhibitory concentration (IC50) is greater than 20 µM.

In the case of “NUGC-3 (stomach, adherent, top dose 20 µM)”, the AUC was found to be 0.979 and the IC50 was greater than 20 µM.

“NY (osteosarcoma, adherent, top dose 20 µM)”: the AUC was determined as 0.988 and the IC50 was greater than 20 µM.

Turning to “OAW-28 (ovary, adherent, top dose 20 µM)”, the AUC was 0.98 and the IC50 is greater than 20 µM.

“OAW-42 (ovary, adherent, top dose 20 µM)”: the AUC turned out to be 0.967 and the IC50 is greater than 20 µM.

Take “OC-314 (ovary, adherent, top dose 20 µM)”: the AUC was determined as 0.955 and the IC50 is greater than 20 µM.

Take “OCI-AML2 (acute myeloid leukaemia, suspension, top dose 20 µM)”: the AUC is 0.967 and the IC50 was greater than 20 µM.

As to “OCI-AML3 (acute myeloid leukaemia, suspension, top dose 20 µM)”, the AUC is 0.875 and the IC50 came out at 14.9 µM.

“OCI-AML5 (acute myeloid leukaemia, suspension, top dose 20 µM)”: the AUC amounted to 0.987 and the IC50 is greater than 20 µM.

For “OCI-LY-19 (B-cell lymphoma, suspension, top dose 20 µM)”, the AUC was determined as 0.958 and the IC50 was greater than 20 µM.

“OCI-M1 (acute myeloid leukaemia, suspension, top dose 20 µM)”: the AUC turned out to be 0.966 and the 50% inhibitory concentration (IC50) was greater than 20 µM.

For the cell line “OCUB-M (breast, adherent, top dose 20 µM)”, the AUC was 0.972 and the IC50 is greater than 20 µM.

“OCUM-1 (stomach, adherent, top dose 20 µM)”: the AUC was found to be 0.987 and the 50% inhibitory concentration (IC50) was greater than 20 µM.

As for “OE21 (oesophagus, adherent, top dose 20 µM)”, the AUC is 0.966 and the half-inhibitory concentration (IC50) was greater than 20 µM.

Take “OE33 (oesophagus, adherent, top dose 20 µM)”: the AUC was found to be 0.967 and the IC50 was greater than 20 µM.

In the case of “OMC-1 (cervix, adherent, top dose 20 µM)”, the AUC was determined as 0.985 and the IC50 is greater than 20 µM.

As to “ONS-76 (medulloblastoma, adherent, top dose 20 µM)”, the AUC amounted to 0.957 and the IC50 is greater than 20 µM.

In the case of “OPM-2 (myeloma, suspension, top dose 20 µM)”, the AUC turned out to be 0.958 and the IC50 is greater than 20 µM.

As to “OS-RC-2 (kidney, adherent, top dose 20 µM)”, the AUC is 0.965 and the IC50 is greater than 20 µM.

“OSC-19 (head and neck, adherent, top dose 20 µM)”: the AUC is 0.979 and the IC50 was greater than 20 µM.

In the case of “OSC-20 (head and neck, adherent, top dose 20 µM)”, the AUC amounted to 0.969 and the IC50 is greater than 20 µM.

Consider OV-90 (ovary, adherent, top dose 20 µM), for which the AUC worked out at 0.982 and the IC50 is greater than 20 µM.

Regarding “OVCAR-3 (ovary, adherent, top dose 20 µM)”, the AUC turned out to be 0.986 and the IC50 was greater than 20 µM.

As for “OVCAR-4 (ovary, adherent, top dose 20 µM)”, the AUC came out at 0.947 and the IC50 was greater than 20 µM.

With “OVCAR-5 (ovary, adherent, top dose 20 µM)”, the AUC is 0.955 and the IC50 was greater than 20 µM.

“OVCAR-8 (ovary, adherent, top dose 20 µM)”: the AUC came to 0.987 and the IC50 was greater than 20 µM.

Consider OVISE (ovary, adherent, top dose 20 µM), for which the AUC amounted to 0.958 and the IC50 was greater than 20 µM.

Turning to “OVKATE (ovary, adherent, top dose 20 µM)”, the AUC is 0.968 and the half-inhibitory concentration (IC50) is greater than 20 µM.

For OVMIU (ovary, adherent, top dose 20 µM), the AUC stood at 0.944 and the IC50 is greater than 20 µM.

Turning to “OVTOKO (ovary, adherent, top dose 20 µM)”, the AUC worked out at 0.964 and the IC50 was greater than 20 µM.

For the cell line “P12-ICHIKAWA (T-cell lymphoblastic leukaemia, suspension, top dose 20 µM)”, the AUC was 0.951 and the IC50 was greater than 20 µM.

Consider “P30-OHK (lymphoblastic leukaemia, suspension, top dose 20 µM)”, for which the AUC came to 0.973 and the IC50 is greater than 20 µM.

On to “P31-FUJ (acute myeloid leukaemia, suspension, top dose 20 µM)”, for which the AUC came out at 0.996 and the IC50 is greater than 20 µM.

In the case of “P32-ISH (Burkitt lymphoma, suspension, top dose 20 µM)”, the AUC stood at 0.994 and the IC50 was greater than 20 µM.

As for PA-1 (ovary, adherent, top dose 20 µM), the AUC was 0.975 and the half-inhibitory concentration (IC50) is greater than 20 µM.

For the cell line “PA-TU-8902 (pancreas, adherent, top dose 20 µM)”, the AUC was found to be 0.965 and the IC50 was greater than 20 µM.

Consider “PA-TU-8988T (pancreas, adherent, top dose 20 µM)”, for which the AUC was 0.987 and the IC50 was greater than 20 µM.

As to “PANC-02-03 (pancreas, adherent, top dose 20 µM)”, the AUC is 0.963 and the IC50 was greater than 20 µM.

Regarding “PANC-03-27 (pancreas, adherent, top dose 20 µM)”, the AUC was determined as 0.962 and the IC50 is greater than 20 µM.

Take “PANC-04-03 (pancreas, adherent, top dose 10.24 µM)”: the AUC was 0.967 and the IC50 was greater than 10.2 µM.

On to “PANC-08-13 (pancreas, adherent, top dose 20 µM)”, for which the AUC was 0.932 and the IC50 was greater than 20 µM.

With “PANC-10-05 (pancreas, adherent, top dose 20 µM)”, the AUC amounted to 0.936 and the IC50 was greater than 20 µM.

Regarding “PC-3 (prostate, adherent, top dose 20 µM)”, the AUC was 0.978 and the IC50 is greater than 20 µM.

For the cell line “PC-3 [JPC-3] (lung adenocarcinoma, adherent, top dose 20 µM)”, the AUC amounted to 0.981 and the IC50 was greater than 20 µM.

For the cell line “PC-14 (lung adenocarcinoma, adherent, top dose 20 µM)”, the AUC amounted to 0.97 and the IC50 was greater than 20 µM.

With “PCI-4B (head and neck, adherent, top dose 20 µM)”, the AUC was 0.965 and the IC50 was greater than 20 µM.

As to “PCI-6A (head and neck, adherent, top dose 20 µM)”, the AUC was 0.968 and the IC50 is greater than 20 µM.

For “PCI-15A (head and neck, adherent, top dose 20 µM)”, the AUC worked out at 0.977 and the IC50 is greater than 20 µM.

As for “PCI-30 (head and neck, adherent, top dose 20 µM)”, the AUC came to 0.983 and the IC50 was greater than 20 µM.

With “PCI-38 (head and neck, adherent, top dose 20 µM)”, the AUC amounted to 0.984 and the IC50 is greater than 20 µM.

For the cell line “PE/CA-PJ15 (head and neck, adherent, top dose 20 µM)”, the AUC amounted to 0.982 and the IC50 was greater than 20 µM.

As for “PF-382 (T-cell lymphoblastic leukaemia, suspension, top dose 20 µM)”, the AUC stood at 0.878 and the IC50 is 15.9 µM.

With “PFSK-1 (medulloblastoma, adherent, top dose 20 µM)”, the AUC turned out to be 0.985 and the IC50 was greater than 20 µM.

With “PL4 (pancreas, adherent, top dose 20 µM)”, the AUC came to 0.98 and the half-maximal inhibitory concentration (IC50) was greater than 20 µM.

As for “PL18 (pancreas, adherent, top dose 20 µM)”, the AUC came out at 0.988 and the IC50 was greater than 20 µM.

“PL-21 (acute myeloid leukaemia, suspension, top dose 20 µM)”: the AUC is 0.901 and the IC50 is greater than 20 µM.

For “PSN1 (pancreas, adherent, top dose 20 µM)”, the AUC came to 0.956 and the IC50 is greater than 20 µM.
